Measurements published in the RNAGym collection of RNA variant scans (doi:10.7554/elife.90254).
The source gives no read counts; variants with many changes may rest on few reads.

B1: LINE1-full (parent)
chain: UACGUAGGUGGUUUUCCCCUGAUAGUGCUAAGGGGGCCUGGAAGUUUGGACUGGGCAGAGCUCAACACAGCGUGGCAAAGUGGCUGUGGCUAGACUGCCUCUCUGGAUUCCUCGUCACUCAGCAGGGCAUCUCUGAGAGAAAUGCC

Variants of: B1
Experiment: self-cleavage, relative activity (ratio to wild type); higher = more cleavage; in vitro, sequencing; the parent is a self-cleaving ribozyme
Work on C84U C101A A117G A124G yielded a self-cleavage of 0.14. Work on C84U U85C A138G yielded a self-cleavage of 0.05. In the case of C84U U85C U102C, the self-cleavage is reported as 0.1. C84U U102A U143C showed a self-cleavage of 0.09. Work on U85A A94G A124G yielded a self-cleavage of 0.08. For U85A A94G C133U U143A, the self-cleavage was 0.18. For U85A A94U A141G, the self-cleavage was 0.09. U85A A107U U115C gave a self-cleavage of 0.13. For U85A A124G U132A, the self-cleavage was 0.05. U85A G97U U109C gave a self-cleavage of 0.2. Variant U85A G125A A138G has a self-cleavage of 0.09. Work on U85A U87C A140G yielded a self-cleavage of 0.2. Variant U85A U96C C128U U134C A142G has a self-cleavage of 0.08. Variant U85A U100C A138G has a self-cleavage of 0.1. Work on U85A U102C U134A yielded a self-cleavage of 0.04. Work on U85A U104C U109A U132C A142G yielded a self-cleavage of 0.34. U85A U119A U134A gave a self-cleavage of 0.07. U85A U119A U143C gave a self-cleavage of 0.04. With U85C A94G U115A U134C the self-cleavage was 0. In the case of U85C A107G C123G, the self-cleavage is reported as 0.12. U85C A117U G126U A141G showed a self-cleavage of 0.1. For U85C A124U A129U, the self-cleavage was 0.27. U85C A129G C146U gave a self-cleavage of 0. For U85C C95A A129C, the self-cleavage was 0.04. Variant U85C C95U G122U has a self-cleavage of 0.02. For U85C C111U U119A U134A A138G, the self-cleavage was 0.21. For U85C G106C U115A, the self-cleavage was 0.16. Work on U85C G114A C123U U130C yielded a self-cleavage of 0.1. Variant U85C G126A U132C G139U has a self-cleavage of 0.12. In the case of U85C G126A U134C, the self-cleavage is reported as 0.18. Work on U85C G127C A142G yielded a self-cleavage of 0.36. U85C G135A A136C gave a self-cleavage of 0.28. In the case of U85C U87C C111U, the self-cleavage is reported as 0.08. In the case of U85C U91C U109A, the self-cleavage is reported as 0. With U85C U96C A117G the self-cleavage was 0. For U85C U96C C101U, the self-cleavage was 0.09. Variant U85C U96C U100C A129G C133A has a self-cleavage of 1.53. Work on U85C U102C A140G yielded a self-cleavage of 0. U85C U102C G135U gave a self-cleavage of 0.23. U85C U102C U104A G114A gave a self-cleavage of 0.08. With U85C U102C U112A the self-cleavage was 0.13. U85C U102C U134C showed a self-cleavage of 0. For U85C U108C A124G, the self-cleavage was 0. Variant U85C U112C A121U has a self-cleavage of 0.17. With U85C U115C A117G the self-cleavage was 0. In the case of U85C U119C A142U, the self-cleavage is reported as 0.19. U85C U132A U134G gave a self-cleavage of 0.2. U85C U134C A142G showed a self-cleavage of 0.34. U85G C99U A124G showed a self-cleavage of 0.11. Variant U85G U87G A136G has a self-cleavage of 0.39. With U85G U109C U119C U134A the self-cleavage was 1. U85G U130C A141G gave a self-cleavage of 0.2. G86A A94G U115A gave a self-cleavage of 0.04. In the case of G86A A121G A136U, the self-cleavage is reported as 0.07. Variant G86A A121U A142G has a self-cleavage of 0.08. Work on G86A U119C A142G yielded a self-cleavage of 0.13. Variant G86U A107G U112G has a self-cleavage of 0.08. U87A A94G U134A gave a self-cleavage of 0.14. In the case of U87A A107G A121U A138U, the self-cleavage is reported as 0.03. With U87A A124G A142G U143A the self-cleavage was 0.11. For U87A A124U U143C, the self-cleavage was 0.12. Variant U87A A136G A138G has a self-cleavage of 0.06. Variant U87A C98U U130C A136G has a self-cleavage of 0.02. Work on U87A G89A U143A yielded a self-cleavage of 0.05. In the case of U87A G106U A129G, the self-cleavage is reported as 0.05. In the case of U87A U96C A140G, the self-cleavage is reported as 0.12. Variant U87A U96C U100C has a self-cleavage of 0.17. U87A U104C U132C showed a self-cleavage of 0. U87A U108C A121G showed a self-cleavage of 0.11. For U87A U109C G126U, the self-cleavage was 0.09. Work on U87A U112C A140G yielded a self-cleavage of 0. Variant U87A U112G A121G has a self-cleavage of 0. In the case of U87A U115A A129U, the self-cleavage is reported as 0.03. For U87A U115A A140G, the self-cleavage was 0.08. U87C A92U U132C gave a self-cleavage of 0.22. With U87C A94G A141G A142G the self-cleavage was 0. For U87C A117G A140G, the self-cleavage was 0.08. For U87C A121U A140G, the self-cleavage was 0.22. Work on U87C A124G A142G yielded a self-cleavage of 0.07. In the case of U87C A129G U143A, the self-cleavage is reported as 0.49. U87C G114A A140G showed a self-cleavage of 0.17. With U87C G114U U115C U119C the self-cleavage was 0.1. In the case of U87C U91C A140G, the self-cleavage is reported as 0.19.
